89 molecules from PubChem BioAssay AID463173 (ICCB-Longwood Screening Facility, Harvard Medical School, 2010) can be followed below.

Each structure is given as a SMILES string. Screen size: about 52,000 compounds; about 1,700 (3.3%) were called active. Rule as the data show it: active = survival mostly below about 52% (no sharp cut-off); inactive = mostly above about 56%. The list shows a part of the results.

For this assay, the system named is Wild type. The experiment in a line: growth inhibition of S. aureus wild type versus tarO mutant, primary screen, teichoic acid synthesis inhibitors, RN4220, OD600 (AID 463173). The settings on record: S. aureus RN4220 wild type/DeltatarO growth, OD600, 18 h, stronger effect = lower value, screened at 18.75 µg/mL (by protocol).
Turning to `Cc1ccc(Cn2c(C)c(CNC3CCCCC3)c(C(=O)O)c2C)cc1`, the survival is inactive: 102%.

As to `CCC(=O)N1CCc2cc(S(=O)(=O)NC(C(=O)NCc3ccc(OC)cc3)C(C)C)ccc21` (centres undefined), the survival was inactive: 86%.

Consider `Cc1ccccc1-n1c(SCC(=O)N(C(C)C)C(C)C)nnc1-c1cccnc1`, for which the survival is inactive: 106%.

In the case of `COc1cc(CN2CCc3nc(Nc4ccc5c(c4)OCCO5)ncc3C2)cc(OC)c1OC`, the survival is inactive: 77%.

Turning to `COC(=O)c1ccc(NC(=O)c2nn(C)c3c2CS(=O)(=O)c2ccccc2-3)cc1`, the survival is inactive: 84%.

On to `CCOC(=O)c1cc2c(=O)n3ccccc3nc2n(Cc2ccco2)c1=NC(=O)c1cc(C)cc(C)c1`, for which the survival was inactive: 55%.

On to `CCc1ccccc1NC(=O)CC(c1ccc(F)cc1)N1Cc2ccccc2C1=O` (centres undefined), for which the survival is inactive: 121%.

As for `COc1ccc(CCNc2nc3c(c(=O)n(C)c(=O)n3C)n2Cc2ccc(F)cc2)cc1OC`, the survival was inactive: 82%.

As for `COc1cccc(N2C(=O)CSC23C(=O)N(CC(=O)Nc2cc(C)ccc2C)c2ccccc23)c1` (centres undefined), the survival was inactive: 74%.

Turning to `COc1ccc(OC)c(CCNC(=O)CCCc2nnc3n(C)c(=O)c4sccc4n23)c1`, the survival is inactive: 87%.

Take `COc1ccc2[nH]cc(CCNC(=O)Nc3ccccc3C)c2c1`: the survival is inactive: 64%.

With `CC1CCN(S(=O)(=O)c2ccc3nc(-c4cccnc4)cc(C(=O)NCCCOC(C)C)c3c2)CC1`, the survival was inactive: 84%.

As to `Cc1cc(C)c(NC(=O)c2sc3nc(C)cc(C)c3c2N)c(C)c1`, the survival is inactive: 73%.

Take `COc1ccc(C)cc1NC(=O)CN1CCN(CC(=O)Nc2ccccc2F)CC1`: the survival was inactive: 72%.

On to `Cc1ccc2sc(N3CCN(C(=O)C4COc5ccccc5O4)CC3)nc2c1C` (centres undefined), for which the survival is inactive: 148%.

Consider `CCCS(=O)(=O)N1CCN(Cc2ccc(OC)c(OCC)c2)CC1`, for which the survival is inactive: 103%.

Turning to `Cc1ccc(Cl)cc1NC(=O)c1oc2ccc(S(=O)(=O)N3CCC4(CC3)OCCO4)cc2c1C`, the survival is inactive: 80%.

Turning to `COc1ccc(NC(=O)Nc2cn(CC(C)C)c(=O)c3ccccc23)c(OC)c1`, the survival is inactive: 77%.

Turning to `O=C1C2=C(Nc3ccccc3SC2c2c(F)cccc2Cl)c2ccccc21` (centres undefined), the survival was inactive: 85%.

Regarding `COc1ccc(-c2cc(-c3ccccc3)nc3c2COc2ccc(Cl)cc2-3)cc1`, the survival was inactive: 77%.

As to `O=C(NCCc1ccc(F)cc1)C(=O)NCC(c1cccs1)S(=O)(=O)c1cccs1` (centres undefined), the survival was inactive: 126%.

As for `COC(=O)c1ccc(NS(=O)(=O)c2ccc3[nH]c4c(c3c2)CCCCC4)cc1`, the survival was inactive: 119%.

`Cc1oc2ncn(C)c(=O)c2c1C(=O)N(C)c1ccccc1F`: the survival was inactive: 112%.

In the case of `CC(C)(C)OC(=O)N1CCC(c2c(C(=O)N3CCN(C4CCCCC4)CC3)cnn2-c2cccc(Cl)c2)CC1`, the survival was inactive: 72%.

As to `CCN1C(=O)C(O)(c2c(C)[nH]c3ccccc23)c2ccccc21` (centres undefined), the survival was inactive: 67%.

For the molecule `COc1ccc(NC(=O)CSC2=Nc3ccccc3C3=NC(CCC(=O)NCCc4ccccc4)C(=O)N23)cc1` (centres undefined), the survival is inactive: 79%.

On to `CCOC(=O)N1CCC(NC(=O)c2cnn(-c3cccc(C)c3)c2-n2cccc2)CC1`, for which the survival is inactive: 80%.

Consider `CC(=O)N1CCCc2cc(S(=O)(=O)N3CCC(C(=O)NC4CCCCC4)CC3)ccc21`, for which the survival is inactive: 110%.

`COc1ccc2cc(C#N)c(N3CCCN(C(=O)/C=C/C(=O)O)CC3)nc2c1`: the survival was inactive: 119%.

In the case of `Cc1ccc(C)c(NC(=O)C(C)N(c2ccccc2)S(C)(=O)=O)c1` (centres undefined), the survival was inactive: 125%.

Consider `Cc1oc2ncn(CC(C)C)c(=O)c2c1C(=O)Nc1ccc(Cl)cn1`, for which the survival is inactive: 68%.

As to `Cc1cccc(-n2cc(-c3ccccc3)nc2SCC(=O)Nc2ccccc2Cl)c1`, the survival was inactive: 115%.

For the molecule `Cc1ccc(C)c(S(=O)(=O)NCC(c2ccc(N(C)C)cc2)N2CCOCC2)c1` (centres undefined), the survival is inactive: 73%.

On to `O=C(NCc1ccccc1Cl)C1CCCN(c2nc3ccccc3n3cccc23)C1` (centres undefined), for which the survival was inactive: 78%.

Regarding `CC(C)c1ccc(NS(=O)(=O)c2ccc3[nH]cc(C(=O)NC4CCCCC4)c(=O)c3c2)cc1`, the survival is inactive: 13%.

As for `CCOc1ccc(CNCCNC(=O)c2nonc2N)cc1`, the survival was inactive: 91%.

`CCC(C)C12CN(C(C)=O)CC(C)(CN(C(C)=O)C1)C2=O` (centres undefined): the survival is inactive: 113%.

Regarding `Cc1cccc(OCCn2nnc3sc4c(c3c2=O)CCCC4)c1`, the survival is inactive: 83%.

For `CCOC(=O)c1sc(NC(=O)c2nc(SC)ncc2Cl)c(C(=O)OCC)c1C`, the survival is inactive: 90%.

For `CCOCc1nnc(NS(=O)(=O)c2ccc(Cl)cc2)s1`, the survival is inactive: 113%.

For `COc1ccc(-n2c(-c3ccc(Cl)cc3)cc3c2CC(C)(C)CC3=O)c(OC)c1`, the survival was active: 3%.

For the molecule `CC1=C(C(=O)Nc2ccc(C)cc2C)C(c2ccc(C(C)C)cc2)n2nc(C(F)(F)F)nc2N1` (centres undefined), the survival is inactive: 82%.

Regarding `COc1ccc(CNC(=O)Cc2c(C)c3ccc(O)cc3oc2=O)cc1`, the survival is inactive: 84%.

For `CCCC1CC(C)(/C(C)=N\NC(N)=S)OC1=O` (centres undefined), the survival is inactive: 113%.

As to `NNc1c(O)c(C(=O)O)cc2ccccc12`, the survival was inactive: 94%.

Consider `Cc1cccc(NC(=O)c2sc3cccc(Cl)c3c2Cl)c1`, for which the survival was active: 6%.

As to `Cc1cccc(C)c1NC(=O)c1ccc2nc(CCc3ccccc3)oc2c1`, the survival is inactive: 69%.

For the molecule `CCCCNC(=O)CSc1c2c(nc3ccc(Cl)cc13)CCCC2`, the survival is inactive: 66%.

On to `COc1ccc(-c2nc3ccccc3s2)cc1NC(=O)c1ccccc1OC`, for which the survival was inactive: 53%.

As to `CNC(=O)c1c(NC(=O)c2cc(=O)c3ccccc3o2)sc2c1CCC2`, the survival was inactive: 73%.

`COc1ccc(CCNC(=O)c2ccc3c(c2)nc2n3CCOC2)cc1OC`: the survival was active: -4%.

`Cn1c(=O)c2sccc2n2c(CCCC(=O)Nc3ccc(F)c(F)c3)nnc12`: the survival was inactive: 105%.

With `COc1cccc(-c2nc(S(=O)(=O)c3ccccc3)c(NCc3ccccc3)o2)c1`, the survival was inactive: 84%.

For `COc1cccc(-c2cc(C(F)(F)F)nc(NCc3ccc(F)cc3)n2)c1`, the survival is active: 0%.

Turning to `CC(C)c1ccc(NC(=O)CCS(=O)(=O)c2ccc(Br)s2)cc1`, the survival was inactive: 130%.

On to `CC1=C(C(=O)Nc2ccccc2)C(c2ccncc2)n2nc(SCc3ccccc3)nc2N1` (centres undefined), for which the survival was inactive: 75%.

For `Cc1cccc2cc(C#N)c(SCC#N)nc12`, the survival was inactive: 103%.

In the case of `COCCCNC(=O)c1c(C)nn(-c2ccc(F)cc2)c1-n1cccc1`, the survival is inactive: 77%.

On to `Cc1c(C(=O)Nc2ccc(F)cc2F)nnn1-c1ccccc1Br`, for which the survival is inactive: 68%.

Turning to `COc1ccc(C(=O)/C=C/c2cn(CC(O)CN(CC(C)C)CC(C)C)c3ccccc23)cc1OC` (centres undefined), the survival was inactive: 60%.

Take `CCc1nn(CC(=O)NCc2cccc(OC)c2OC)c(=O)c2cc3occc3n12`: the survival was inactive: 120%.

For the molecule `O=C(NCCCO)C(=O)Nc1c2c(nn1-c1ccc(F)cc1)CSC2`, the survival was inactive: 119%.

As for `COc1ccc(NC(=O)C2=C(C)Nc3nc(SC)nn3C2c2cc(OC)ccc2OC)cc1` (centres undefined), the survival is inactive: 72%.

Consider `Cc1nnc(N2CCC(C(=O)NCc3ccc(N(C)C)cc3)CC2)c2nn(-c3ccccc3)c(C)c12`, for which the survival was inactive: 113%.

Regarding `COc1cccc2cc(C(=O)N3CCCCC3)c(=O)oc12`, the survival is inactive: 106%.

In the case of `c1ccc(N2CCN(c3ncnc4c3nc3n4CCCC3)CC2)cc1`, the survival is inactive: 69%.

For `O=C(CSc1nc2ccccc2n1Cc1cccc(Cl)c1)N1CCN(c2ccc(F)cc2)CC1`, the survival was inactive: 110%.

For `CN(CC(=O)Nc1cccc(C#N)c1)S(=O)(=O)c1cc2c(cc1Cl)NC(=O)CO2`, the survival was inactive: 129%.

In the case of `CCOc1ccccc1CNC(=O)CC(C)n1ccc(C)n1` (centres undefined), the survival was inactive: 73%.

Turning to `COc1ccc(OC)c(CNC(=O)Cn2nc(C)c3c(C)n(-c4ccccc4)nc3c2=O)c1`, the survival is inactive: 81%.

Take `Cc1cc2oc(C(=O)Nc3cccc(-c4nc5ccccc5o4)c3)c(C)c2cc1Cl`: the survival is inactive: 91%.

As for `O=C(Nc1ccc(Cl)cc1)c1ccc2c(c1)N(Cc1ccccc1)C(=O)c1ccccc1S2(=O)=O`, the survival was inactive: 149%.

For the molecule `COc1ccc(NC(=O)Cn2c(=O)n(Cc3ccco3)c(=O)c3sc4ccccc4c32)cc1Cl`, the survival was inactive: 77%.

With `O=C(Nc1ccc(Cl)cc1)c1ccc2c(c1)N(Cc1ccccc1)CCS2`, the survival is inactive: 89%.

On to `Cc1ccc(N2CCn3c2nc2c3c(=O)n(Cc3cccc(Cl)c3)c(=O)n2C)cc1C`, for which the survival is inactive: 82%.

On to `CC(C)c1ccc(NC(=O)CN2C(=O)C3(SCC(=O)N3c3ccc(F)cc3)c3ccccc32)cc1` (centres undefined), for which the survival was inactive: 58%.

As for `O=C(O)/C=C/C(=O)Nc1ccc(-c2nc3ccccc3o2)cc1`, the survival was inactive: 99%.

Regarding `CCCOc1ccc(CC2C(=O)Nc3ccc(Br)cc32)cc1` (centres undefined), the survival was active: -7%.

Regarding `O=C(CN1C(=O)CCSc2ccc(S(=O)(=O)N3CCCC3)cc21)Nc1ccccc1Cl`, the survival is inactive: 72%.

Consider `CCN(C(=O)CSc1nc2ccccc2nc1Cc1ccccc1OC)c1ccccc1`, for which the survival is inactive: 88%.

`CCCC12CN3CC(CCC)(CN(C1)C3c1c[nH]c3ccc(OC)cc13)C2=O` (centres undefined): the survival was inactive: 86%.

For the molecule `CC(C(=O)NCc1ccccc1)n1ccc2cc(S(=O)(=O)N3CCCC3)ccc21` (centres undefined), the survival is active: -3%.

`CCOc1ccccc1CNC(=O)CCc1cn(C)c2ccccc12`: the survival was inactive: 125%.

For `Cc1nc(CC(=O)Nc2ccc(C(N)=O)cc2)cs1`, the survival is inactive: 83%.

In the case of `CCSC1=NC2(CCN(C(=O)NC3CCCCC3)CC2)N=C1c1ccc(OC)cc1`, the survival is inactive: 136%.

In the case of `Cc1ccc(C(=O)CC2(O)C(=O)N(CCc3ccccc3)c3ccc(Br)cc32)cc1` (centres undefined), the survival is inactive: 24%.

`Cn1c(=Nc2cccc(O)c2)sc2ccccc21`: the survival is inactive: 94%.

With `CCOCCCNC(=O)C(c1ccc(OC)cc1)N(Cc1cccs1)C(=O)CNC(C)=O` (centres undefined), the survival was inactive: 79%.

As to `CCc1cccc(NC(=O)CN2C(=O)COc3ccc(S(=O)(=O)N4CCC(C)CC4)cc32)c1`, the survival was inactive: 69%.
